Measurements taken from PubChem BioAssay AID1508642 (National Center for Advancing Translational Sciences (NCATS), 2021).
The whole screen tested about 43,000 compounds, of which about 200 (0.47%) were called active. About 12% were inconclusive and are not listed. Calls come from the whole dose curve; as a rule, active = well fitted cell-killing curve with a large enough effect; inconclusive = small, poorly fitted or top-dose-only effect, or effect the other way; inactive = flat fitted curve, though single readings scatter. The list shows a part of the results.

Test: Cell viability qHTS assay in S16 Pmp22-F2sN cells; note: nearly all actives have a fitted effect of over 65% in size
Conditions: S16 Pmp22-F2sN Schwann cells viability, CellTiter-Glo, 24 h; series mostly up to 57.5 µM; activity change, negative = cytotoxicity: at the top concentration
Outline: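 Viability was measured by CellTiter-Glo luminescence (15 min, room temperature). This followed 24 h at 37 °C of compound exposure (23 nL pin transfer) in S16 Pmp22-F2sN Schwann cells, 500-1,000 per well.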
% is set by controls: 0 for no effect and ±100 for the full control effect.

SMILES | activity change, negative = cytotoxicity
Cc1nc(SC(C)C(=O)Nc2ccccc2Cl)cc(-c2ccccc2)n1 (stereo not drawn) | inactive: 1.96%
CCn1cc(C(=O)N2CCN(c3cc(C)ccc3C)CC2)c(=O)c2cc(S(=O)(=O)N3CCCCC3)ccc21 | inactive: 3.56%
Cc1ccc([N+](=O)[O-])cc1S(=O)(=O)N1CCn2cccc2C1c1ccccc1 (stereo not drawn) | inactive: -7.74%
COc1ccc(NC(=O)CCc2nnc3n(Cc4ccccc4Cl)c(=O)c4ccccc4n23)cc1 | inactive: 7.71%
Cc1ccc2nc(-c3ccc(Cl)c(NC(=O)COc4ccc(C(C)C)cc4)c3)oc2c1 | inactive: 1.62%
Cc1ccc(C)c(NC(=O)C2CCCN(S(=O)(=O)c3cn(C)cn3)C2)c1 (stereo not drawn) | inactive: -2.84%
Cc1ccc(-c2cc(C(=O)N(Cc3ccc(C(C)(C)C)cc3)Cc3ccco3)no2)cc1 | inactive: 23.6%
COc1ccc(NC(=O)c2ccco2)cc1NC(=O)COc1ccc(Cl)c(C)c1 | inactive: -6.65%
Cc1ccc(NC(=O)N2CC3CCCN3c3ccccc32)c(C)c1 (stereo not drawn) | inactive: -14.4%
Fc1ccc(-n2ncc3c(N4CCCCCC4)ncnc32)cc1 | inactive: 2.11%
CCOc1ccc(C(=O)Nc2c(C(=O)N3CCN(c4ccccc4F)CC3)oc3ccccc23)cc1 | inactive: -7.78%
Cc1ccc(NS(=O)(=O)c2cc3[nH]c(=O)c(=O)[nH]c3cc2C)cc1Cl | inactive: 15.4%
Cc1cc(N2CCN(c3cccc(C(F)(F)F)c3)CC2)n2nc(-c3ccccc3)nc2n1 | inactive: -3.29%
CC(C)C(=O)NCC1(N(C)C)CCCCC1 | inactive: 1.38%
CCc1nonc1NC(=O)c1oc2ccc(C)cc2c1C | inactive: 4.75%
CCOc1ccc(N2C(=O)c3n[nH]c(-c4cccs4)c3C2c2cccc(F)c2)cc1 (stereo not drawn) | inactive: 0.518%
CCOC(=O)c1ccc(-n2c(-c3ccc(C)cc3)c(C)n3c4c(=O)n(C)c(=O)n(C)c4nc23)cc1 | inactive: 2.27%
COc1ccc(-c2cc(-c3ccc4c(c3)NC(=O)CO4)nc3c2COc2ccc(F)cc2-3)cc1 | inactive: 2.94%
CCN(CC)S(=O)(=O)c1ccc2c(c1)N(CC(=O)N1CCN(c3cccc(OC)c3)CC1)C(=O)CO2 | inactive: -3.2%
CCOc1ccccc1CNC(=O)c1ccc2c(c1)nc1n2CCCCC1 | inactive: 2.12%
Cc1c(Nc2nc3ccccc3n3c(C)nnc23)cccc1C(=O)O | inactive: -1.19%
CCc1ccc(NC(=O)c2ccc(F)c(S(=O)(=O)NCc3ccc(Cl)c(Cl)c3)c2)cc1 | inactive: 10.5%
CN(C)c1ccc(-c2nc(-c3ccco3)no2)cc1[N+](=O)[O-] | inactive: -9.25%
O=C(Nc1ccccc1)N(Cc1cccs1)c1ccc(F)cc1 | inactive: 2.06%

SMILES | activity change, negative = cytotoxicity
CCCN(C(=O)c1cc2c(=O)oc3ccccc3c2s1)c1cccc(Cl)c1 | inactive: 13.6%
CCCc1cc(=O)n2[nH]c(NC(=O)c3ccccc3Cl)nc2n1 | inactive: 1.31%
CCOC(=O)N1CCN(C(=O)CN(c2cccc(Cl)c2)S(=O)(=O)c2ccccc2)CC1 | inactive: -0.709%
Cc1ccc(NC(=O)N2CCc3cc(S(=O)(=O)N4CCC(C)CC4)ccc32)cc1F | inactive: 5.69%
CCOC(=O)c1ccc(N2C(=O)c3[nH]nc(-c4ccc(OC)cc4)c3C2c2ccccc2Cl)cc1 (stereo not drawn) | inactive: 20.9%
COc1ccc(C2c3c(n(C)c4ccccc34)C(=O)N2CC(=O)Nc2cc(Cl)ccc2C)cc1 (stereo not drawn) | inactive: -18.5%
Cc1ccc2onc(CC(=O)Nc3cccc(C(F)(F)F)c3)c2c1 | inactive: -25.3%
CCc1cccc(NS(=O)(=O)c2ccc3c(c2)n(C)c(=O)c(=O)n3C)c1 | inactive: -4.23%
CCOC(=O)c1c(NC(=O)CSc2cn(CCNC(=O)c3ccc(OC)c(OC)c3)c3ccccc23)sc2c1CCCC2 | inactive: 3.48%
Cc1ccc(CNC(=O)CCCn2nc(C)c3c(C)n(-c4ccccc4)nc3c2=O)cc1 | inactive: -0.64%
CCOC(=O)CSc1nc2cc3c(cc2c(=O)n1CCCC(=O)NCCc1ccc(OC)c(OC)c1)OCO3 | inactive: -14.9%
COc1cccc(CNC(=O)c2cc(S(=O)(=O)N3CCCCCC3)cn2C)c1 | inactive: 15.7%
CCOC(=O)c1sc(N2C(=O)c3oc4ccc(C)cc4c(=O)c3C2c2ccccc2F)nc1C (stereo not drawn) | inactive: 0.707%
CCC1CN(C(=O)Nc2cc(C)ccc2OC)c2cc(Cl)ccc2O1 (stereo not drawn) | inactive: 6.35%
Cc1cc(C)cc(OCC(=O)NC(Cc2c[nH]c3ccccc23)C(=O)O)c1 (stereo not drawn) | inactive: 4.15%
CCOc1ccc(S(=O)(=O)Nc2ccc3oc(C)c(C(=O)OC(C)C)c3c2)cc1 | inactive: -3.47%
Cc1cccc(OCC(=O)Nc2c(C(=O)N3CCN(c4ccccc4F)CC3)oc3ccccc23)c1 | inactive: 9.78%
COC(=O)c1ccc(NC(=O)CC2Nc3cc(C)c(C)cc3NC2=O)cc1 (stereo not drawn) | inactive: 2.01%
COc1ccccc1NCc1cccn1-c1nnc(N2CCCCCC2)s1 | inactive: -1.08%
Cc1cc(C)n(-c2nc3ccccc3nc2Nc2ccc(Cl)c(Cl)c2)n1 | inactive: 3.33%
CCOC(=O)c1c(NC(=O)c2ccc(Br)cc2)sc2c1CCCC2 | inactive: 6.94%
Cc1nn(C)c2c1c(C(F)(F)F)cc(=O)n2CC(=O)N1CCCCC1 | inactive: 17.4%
O=C(O)c1cccc(Nc2ncnc3ccc(Br)cc23)c1 | inactive: -2.48%
COc1ccc(C(=O)Nc2nnc(S(=O)(=O)N3CCCc4ccccc43)s2)cc1 | inactive: 3.7%
